Measured values as given in PubChem BioAssay AID624417 (National Center for Advancing Translational Sciences (NCATS), 2012).
The whole screen tested about 410,000 compounds, of which about 6,400 (1.6%) were called active. This list was built around the results that the source calls inconclusive (neither active nor inactive); the mix of calls is not that of the screen. The call rests on the fitted dose curve; in most records, active means well fitted inhibition curve with a large enough effect; inconclusive means small, poorly fitted or top-dose-only effect; inactive means no such curve, though single readings can be large or run the other way. No potency is given beside an inconclusive call; the fits are too rough.

Molecular target: Glucagon-like peptide 1 receptor (Homo sapiens) (UniProt P43220)
Chain of UniProt P43220 (P43220 whole entry, looked up): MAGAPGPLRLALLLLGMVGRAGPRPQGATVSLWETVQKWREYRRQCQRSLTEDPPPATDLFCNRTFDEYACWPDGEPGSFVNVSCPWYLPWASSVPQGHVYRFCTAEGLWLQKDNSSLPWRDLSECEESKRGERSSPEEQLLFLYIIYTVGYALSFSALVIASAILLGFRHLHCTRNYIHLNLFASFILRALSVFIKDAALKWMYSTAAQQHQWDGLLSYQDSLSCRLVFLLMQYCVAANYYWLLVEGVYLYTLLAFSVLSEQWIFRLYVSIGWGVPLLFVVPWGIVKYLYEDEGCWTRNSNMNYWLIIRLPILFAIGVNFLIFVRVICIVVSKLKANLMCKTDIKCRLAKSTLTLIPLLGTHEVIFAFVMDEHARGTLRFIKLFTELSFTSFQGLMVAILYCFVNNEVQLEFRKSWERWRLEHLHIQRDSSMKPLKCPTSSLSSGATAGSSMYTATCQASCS
Assay: qHTS of GLP-1 Receptor Inverse Agonists (Inhibition Mode); further: nearly all actives have a fitted effect of over 55% in size
Details: HEK293 GLP-1R CRE-luciferase, luminescence, 24 h, GLP-1R form is constitutively active; activity change, negative = inhibition: at 38.3 µM (top of the series) unless noted
Summary of the method: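 Seeding at 200 cells/uL, 12 h culture, 24 hr compound treatment, then luciferase reagent and a luminescence read; cells are HEK293 stably expressing a constitutively active GLP-1R plus cAMP-responsive luciferase.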
On the % scale 0 is the no-effect control and ±100 the full control effect; potency means the concentration at half of the fitted maximal effect; tags describe the fitted curve by direction and shape.

How did the activity change, negative = inhibition turn out when `C/C(=C\c1ccccc1F)C(=O)c1c(C)cc(C)[nH]c1=O` was run?
Its activity change, negative = inhibition is inconclusive: -46.8% [inhibitor].

`CCc1ccc(NC(=O)CN(c2ccccc2)S(=O)(=O)N(C)C)cc1` was tested. Which Potency did it give?
The Potency was inconclusive [inhibitor, partial curve, poor fit].

How did the Potency turn out when `C=CCSc1cc(C)nc2c(-c3ccccc3)c(C)nn12` was run?
Its Potency is inconclusive [inhibitor, partial curve, poor fit].

For `CC(C)(C)CC(=O)Nc1ccc(S(=O)(=O)N2CCCC2)cc1`, which Potency is on record?
Its Potency is inconclusive [inhibitor, single point].

How did the Potency turn out when `Cc1ccc(C(=O)OCC(=O)N2CCCCCC2)c(O)c1` was run?
Its Potency is inconclusive [inhibitor, single point].

With `O=C(c1ccc(-c2ccccc2Cl)o1)N1CCCC(C(F)(F)F)C1` (stereo not drawn) as the molecule, how does the Potency read?
The Potency was inconclusive [inhibitor, single point].

How did the Potency turn out when `Cn1c(=N)n(CC(=O)C(C)(C)C)c2ccccc21` was run?
Its Potency is inconclusive [inhibitor, single point].

With `Cn1cccc1C(C#N)c1ncc(C(F)(F)F)cc1Cl` (stereo not drawn) as the molecule, how does the “activity change, negative = inhibition” value read?
Its value is inactive: -8.62%.

With `COc1ccc(Cl)cc1NC(=O)NCCn1c(=O)oc2ccc(C)cc21` as the molecule, how does the Potency read?
The Potency was inconclusive [inhibitor, partial curve, poor fit].

For `COc1ccc(S(=O)(=O)N2CCOCC2)cc1C(=O)NCC(c1ccccc1)c1ccccc1`, which Potency is on record?
Its Potency is inconclusive [inhibitor, single point].

How did the Potency turn out when `COc1ccc(Cl)cc1NC(=O)NN1CCN(C)CC1` was run?
Its Potency is inconclusive [inhibitor, single point].

Which Potency does the source give for `Cc1ccc(N(CC(=O)N2CCN(c3cccc(Cl)c3)CC2)S(=O)(=O)c2c(C)noc2C)cc1` here?
The Potency was inconclusive [inhibitor, single point].

How did the Potency turn out when `CN(C(=O)COC(=O)c1ccccc1Cc1ccccc1)c1c(N)n(Cc2ccccc2)c(=O)[nH]c1=O` was run?
The Potency was inconclusive [inhibitor, single point].

With `COc1ccc(OC)c(N(CC(=O)N2CCN(c3cc(Cl)ccc3C)CC2)S(C)(=O)=O)c1` as the molecule, how does the Potency read?
Its Potency is inconclusive [inhibitor, single point].

With `Cc1nn(C(C)(C)C)c(OC(=O)c2ccc3c(c2)OCO3)c1Sc1ccccc1` as the molecule, how does the Potency read?
Its Potency is active: 4.47 µM.

How did the Potency turn out when `O=C(NCc1ccccc1)c1ccc(-c2ccccc2F)o1` was run?
Its Potency is inconclusive [inhibitor, single point].

`C=CC(=O)Nc1cccc(Oc2ccnc3[nH]ccc23)c1` was tested. Which “activity change, negative = inhibition” value did it give?
Its value is inactive: -24.3%.

With `COc1ccccc1N1CCN(C(=S)Nc2ccc(F)cc2)CC1` as the molecule, how does the Potency read?
The Potency was inconclusive [inhibitor, single point].
